Read counts are not given, so values of variants with three or more changes are uncertain.
B1: CPEB3 Ribozyme (parent)
chain: UAACAGGGGGCCACAGCAGAAGCGUUCACGUCGCAGCCCCUGUCAGAUUCUGGUGAAUCUGCGAAUUCUGCUGUAUAUCUC

Variants of: B1
Assay: self-cleavage, relative activity (ratio to wild type); higher = more cleavage; in vitro, sequencing
Summary of the method: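 Relative activity was defined as the cleaved/total read fraction for a variant divided by the same fraction for the unmutated ribozyme. CPEB3 self-cleaving ribozyme libraries were made by rounds of error-prone PCR, barcoded, and transcribed in vitro with T7 RNA polymerase for 5 hours at 37°C, and cleavage ran through transcription plus a 15 min DNase I step before EDTA. Illumina sequencing of template-switched reverse transcripts gave the reads, and DNA sequencing mapped the barcodes. Averages come from three batches, using variants with at least 5 reads.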

Variant	self-cleavage
UAACAGGGGGCCCCAGCAGAAGCGUUCACGUCGCAGCCCCAGUCAGAUUCUGGUGAAUCCGCGAAUUCUGCCGUAUAUCUC [A13C U41A U60C U72C]	0.12
UAACAGGGGGCCCCAGCAGAAGCGCUCACGUCGCAGCCCCUGUCAGAUUCUGGUGAAUCUGCGAAUUCUGCAGUAUAUCUC [A13C U25C U72A]	0.17
UAACAGGGGGCUACAGCAGAAGCGUUCACGUCGCAGCCCCUGUCAGAUUCUGGUGAAACUGCGAAUUCUGCUGCGUAUCUC [C12U U58A U74C A75G]	1.21
UAACAGGGGGCCCCAGCUGAAGCGAUCACGUCGCAGCCACUGUCAGAUUCUGGUGAAUCUGCGAAUUCUGCCGUAUAUCUC [A13C A18U U25A C39A U72C]	0.21
UAACAGGGGGCCCCAGCAGAAGCGUUCACGCCGCAGCCCCUGUCAGAUUCUGGUGAAUCUGCGAGUUCUGCUAUACAUCUC [A13C U31C A65G G73A U76C]	0.36
UAACAGGGGGCCCCAGCAGAAGCGUACACGUCGCAGCCCCUGUCAGAUUCUGGUGAAUCCGCGAAUUCUGCUGUAUAUCUC [A13C U26A U60C]	0.44
UAACAGGGGGCCCCAGCAGAAGCGUUCGCGCCGCAGCCCCUGUCAGAUUCUGGUGAAUCUGCGAAUUCUGCUGUAUAUCCC [A13C A28G U31C U80C]	0.28
UAACAGGGGGCCCCAGCAGAAGCGUUCACGCCGCAGCCCCUGUCAGAUUCUGGUGAAUCUGCGAAUUCUGCCGUAUAUCUC [A13C U31C U72C]	0.26
UAACAGGGGGCCCCAGCAGAAGCGUUCGCGUCGCAGCCCCUGUCAGAUUCUGGUGAAUCUGCGAAUUCAGCUGUAUAUCUC [A13C A28G U69A]	0.11
UAACAGGGGGCCCCAGCAGAAGCGUUCACGUCGCAGCCCCUGUCAGAUUCUGGUGAAUCUGGGAAUACUGCUGUAUAUCUC [A13C C62G U67A]	0.12
UAACAGGGGGCCCCAGCAGAAGCGACCACGUCGCAGCCCCUGACAGAUUCUGGUGAAUCUGCGAAUUCUGCUGUAUAUCUC [A13C U25A U26C U43A]	0.3
UAACAGGGGGCUACAGCAGAAGCGUUCACGUCGCAGCCCCUGUCAGAUUCUGGUGAAUCUGCGAACUCCGCUGUAUACCUC [C12U U66C U69C U78C]	0.28
UAACAGGGGGCCCCAGCAGGAGCGUUCACGUCGCAGCCCCCGUCAGAUUCUGGUGAGUCUGCGAAUUCUGCUGUAUAUCUC [A13C A20G U41C A57G]	0.24
UAACAGGGGGCCCCAGCAGAAGCGCUCGCGUCGCAGCCCCUGUCAGAUUCUGGCGAAUCUGCGAAUUCUGCUGUAUAUCUC [A13C U25C A28G U54C]	0
UAACAGGGGGCCCCAGCAGAAGCGUUCACGUCGCAGCCGCUGCCUGAUUCUGGUGAAUCUGCGAAUUCUGCUGUAUAUCUC [A13C C39G U43C A45U]	0.06
UAACAGGGGGCCCCAGCGCAAGCGUUCAUGUCGCAGCCCCUGUCAGAUUCUGGAGAAUCUGCGAAUUCUCCUGUAUAUCUC [A13C A18G G19C C29U U54A G70C]	0.28
UAACAGGGGGCCCCAGCAGAAGCGCUCACGUCGCAGCCCCUGUCAGAUUCUGGUGAAUCUGCGAAUUCUGCUGUGUAUCUC [A13C U25C A75G]	0.12

Variant	self-cleavage
UAACAGGGGGCCCCGGCAGAAGCGUUCUCGUCGCAGCCCCUGCCAGGUUCUGGUGAAUCAGCGGAUUCUGCUGUAUAUCUC [A13C A15G A28U U43C A47G U60A A64G]	0.14
UAACAGGGGGCCCCAGCAGAAGCACUCACGUCGCAGCCCCUGUCAGAUUCUGGCGAAUCUCCGAAUUCUGCUGUAUCUCUC [A13C G24A U25C U54C G61C A77C]	0.06
UAACAGGGGGCCCCGGCAGAAGCGUUCACGUCGCAGCCCCUGUCAGAUUCUGGUGAAUCAGCGAAUUCUGCUGUAUAUCUC [A13C A15G U60A]	0.38
UAACAGGGGGCCCCAGCAGAAGCGUUCACGUCGCAGCCCCUGUCAGAUUCUGGUGGAUCUGCGAAUACUGCUGUAUAUCUC [A13C A56G U67A]	0.89
UAACAGGGGGCCCCAGCAGAAGCGUUCACGUCGCAGCCCCGGUCAGAUUCUGGUGUAUCCGCAAAUUCCGCUGUGUAUCUC [A13C U41G A56U U60C G63A U69C A75G]	0.03
UAACAGGGGGCUACAGCAGAAGCGUUCACGUCGCAGCCCCUGUCAGAUUCUGGUGAACCUGCGAAUUCUGCUUUAUAUCUC [C12U U58C G73U]	1.38
UAACAGGGGGCCCCUGCAGAAGCGUUCGCGUCGCAGCCCCUGUCAGAUUCUGGUGAAUCUGCGAAUUCCGCCGUAUAUCUC [A13C A15U A28G U69C U72C]	0.13
UAACAGGGGGCCCCAGCAGAAGCGCUCACGUCGCAGCCACUGUCAGAUUCUGGUGAAUCUGCGAAUUCUGCUGUAUAUCUC [A13C U25C C39A]	0.14
UAACAGGGGGCCCCAGCAGAAGCGUUCACGUCGCAGCCCCUGUCAGAUUCUGGUGAAUCUGCGAAUUCUGACGUAUAUCUC [A13C C71A U72C]	0.47
UAACAGGGGGCCCCAGCAGAAGCGUUCACGUCGCAGCCCCUGUCAGAUUCUGGUGAGUCUGCGGGUUCUGCUGUAUACCUC [A13C A57G A64G A65G U78C]	0.15
UAACAGGGGGCCCCAGCAGAAGCGUGCACGUCGCAGCCCCUGUCAGAUUCUGGUGAAUCUGCGAAUUCAGCUGAAUAUCUC [A13C U26G U69A U74A]	0.06
UAACAGGGGGCCCCAGUAGAAGCGCUCACGUCGCAGCCCCUGCCAGAUUCUGGUGAAUCUGCGAAUUCUGCUGUAUAUCUC [A13C C17U U25C U43C]	0.24
UAACAGGGGGCCCCAGCAGAAGCGUUUACGUCGCACCCCUUGUCUGAUUCUGGUGAAUCUGCGAAUUCAGCUGUAUAUCUC [A13C C27U G36C C40U A45U U69A]	0.19
UAACAGGGGGCUACAGCAGAAGCGUUCACGUCGCAGCCCCUGUCAGAUUCUGGUGAACCUGCGUGCUCUGCUGUAUAUCUC [C12U U58C A64U A65G U66C]	0.24
UAACAGGGGGCCCCAGCAGAAGCGUUCACGUCGCUGCCCCUGUCAGAUUCUGGUGAAUCUGCGUGUUCUGCUGCAUAUCUC [A13C A35U A64U A65G U74C]	0.05
UAACAGGGGGCCCCAGCAGAAGCGCUCACGUCGCAGCCGCUGUCUGAUUCUGGUGAAUCUGCGAAUUCUGCUGUAUAUCUC [A13C U25C C39G A45U]	0.07
UAACAGGGGGCCCCAGCAGAAGCGUUCACGUCGCAGCCCCUGACAGAUACUGGUGAAUCUGCGAAUCCUGCUGUAUAUCUC [A13C U43A U49A U67C]	0.21
